Source: PubChem BioAssay AID1508623 (National Center for Advancing Translational Sciences (NCATS), 2021)
Screen size: about 48,000 compounds; about 450 (0.94%) were called active. Another 19% or so got no clear call; they are omitted. The call rests on the fitted dose curve; in most records, active means well fitted inhibition curve with a large enough effect; inconclusive means small, poorly fitted or top-dose-only effect; inactive means no such curve, though single readings can be large or run the other way. This is one part of the list.

test: Primary qHTS for Identification of Small Molecule Inhibitors of Huntingtin Promoter Activity; details: HEK293 HTT promoter firefly luciferase reporter (activity 0% = vehicle and -100% = no light), 24 h; series mostly up to 57.5 µM; activity change, negative = inhibition: at the top concentration; further: nearly all actives have a fitted effect of over 50% in size
How it was run: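 HEK293 Fluc reporter, 2,500 cells/well, 24 h pre-culture; cpds up to 57.5 uM final, 24 h 37 degrees C; Dual-Glo, 10 min RT; normalized vehicle = 0%, zero RLU = -100%.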
Potency means the concentration at half of the fitted maximal effect.

| Compound | activity change, negative = inhibition | Potency |
| --- | --- | --- |
| Cc1cccc(C)c1OCC(=O)Nc1c(C(=O)c2ccccc2)oc2ccccc12 | inactive: -6.53% | – |
| COc1ccc(-c2c(C)nn3c(-c4ccccc4)cc(-c4ccccc4)nc23)cc1 | inactive: -13.1% | – |
| Cc1ccc(NC(=O)CSc2nc3nccnc3c(=O)n2CCc2c[nH]c3ccccc23)c(C)c1 | inactive: -13.8% | – |
| Cc1ccc(C)c(N2CCN(C(=O)c3cccn4c(=O)c5ccccc5nc34)CC2)c1 | inactive: -20.3% | – |
| CC(C)C[C@@H](N)C(=O)O | inactive: -3.86% [at 25.2 µM] | – |
| CCCCOC(=O)c1ccc(NC(=O)c2cc(=O)c3ccccc3o2)cc1 | inactive: -16.8% | – |
| O=C(O)CCCn1cc(NC(=O)COc2ccccc2F)cn1 | inactive: -18.6% | – |
| CCc1ccc(C(=O)c2cn(CC(=O)Nc3ccc(OC)cc3)c3cc4c(cc3c2=O)OCCO4)cc1 | inactive: -10.2% | – |
| Cc1ccc(OCCSc2nc3ccccc3n2CC(=O)NC(C)C)cc1 | inactive: -15.9% | – |
| O=C(CSc1ncc2c(n1)-c1cc(Cl)ccc1N(Cc1ccccc1)S2(=O)=O)NCc1ccccc1 | inactive: -18.6% | – |
| Cc1ccc(-c2nnn3c2nc(N2CCC(C)CC2)c2ccccc23)cc1 | inactive: 2.59% | – |
| Fc1ccc(Nc2c(-c3c[nH]c4ccccc34)nc3ccccn23)cc1 | inactive: 17.2% | – |
| Cc1ccc(C(=O)Nc2nnc(S(=O)(=O)N3CCCc4ccccc43)s2)cc1 | inactive: 11.8% | – |
| COc1ccc(CCNC(=O)c2ccc(CSCc3ccc(C)cc3)o2)cc1OC | – | active: 25.1 µM |
| COc1ccc(C(=O)Nc2ccc3nc(N4CCCCC4)cc(C)c3c2)cc1OC | inactive: -17.8% | – |
| Cc1cccc(CSc2ccc3nnc(CCNS(=O)(=O)c4ccccc4)n3n2)c1 | inactive: -26.8% | – |
| O=S(=O)(c1ccc(Cl)cc1)N1CCC(c2ccncc2)CC1 | inactive: -7.46% | – |
| O=C(Nc1nnc(S(=O)(=O)N2CCOCC2)s1)c1cccc(Br)c1 | inactive: -14.4% | – |
| Cc1nc2c(C(=O)NCCc3ccccc3)c[nH]n2c(=O)c1Cc1ccccc1F | inactive: -9.32% | – |
| COc1cccc(C(=O)Nc2ccc(C(=O)OCc3cc(=O)n4cc(C)sc4n3)cc2)c1 | inactive: 18.3% | – |
| COc1cc(NS(=O)(=O)c2cc3c(cc2C)n(C)c(=O)c(=O)n3C)cc(OC)c1 | inactive: -3.21% | – |
| COc1cc(NC(=O)NCCn2nnc3cc(S(=O)(=O)N(C)C)ccc32)cc(OC)c1OC | inactive: -8% | – |
| COc1cc(NC(=O)c2cc3cc4ccc(OC)c(Cl)c4nc3s2)cc(OC)c1 | inactive: -4.1% | – |
| CCC(Sc1ccc2nnc(CCNS(=O)(=O)c3ccc(OC)cc3)n2n1)C(=O)OC (stereo not drawn) | inactive: -1.67% | – |

| Compound | activity change, negative = inhibition | Potency |
| --- | --- | --- |
| Cc1ccccc1C(=O)NC1(C(F)(F)F)C(=O)Nc2c1c(=O)[nH]c(=O)n2CCc1ccccc1 (stereo not drawn) | inactive: -4.36% | – |
| COc1ccc(-c2nc3c4ccccc4n(CC(=O)Nc4ccc(C(C)=O)cc4)c(=O)n3n2)cc1 | inactive: 10.3% | – |
| Cc1nc2ccc(S(=O)(=O)NCC(=O)Nc3ccc(C)c(Cl)c3)cc2s1 | inactive: -11.8% | – |
| Cc1cc(C)cc(NC(=O)CSc2nc3c(cnn3-c3ccc(F)cc3)c(=O)[nH]2)c1 | inactive: -11.4% | – |
| O=C(NC1CCCCCC1)C1CCN(C(=O)N2CCOc3ccc(Cl)cc32)CC1 | inactive: -17% | – |
| CCCCc1nn2c(=O)cc(COC(=O)c3cccc(NC(=O)COc4ccccc4)c3)nc2s1 | inactive: 19.9% | – |
| Cc1ccc(C2=NN(CC(=O)NCCCN(CC(C)C)CC(C)C)C(=O)CC2)cc1 | inactive: -1.51% | – |
| Cc1cc2[nH]c(=O)c(=O)[nH]c2cc1S(=O)(=O)NCc1ccc(F)cc1 | inactive: -0.464% | – |
| CCOCCCNC(=O)c1ccc2c(c1)NC(=O)C(CS(=O)(=O)Cc1ccc(F)cc1Cl)N2 (stereo not drawn) | inactive: -20% | – |
| Cc1cc(C)n(-c2nc3ccccc3nc2Nc2ccc(C(C)C)cc2)n1 | inactive: 3.12% | – |
| CCN(CCCNC(=O)CSc1cc(=O)n(C)c2ccccc12)c1ccccc1 | inactive: -12.9% | – |
| CCOc1cccc(NC(=O)C2CC(=O)N(C)C(=Nc3cccc(OC)c3)S2)c1 (stereo not drawn) | inactive: -25.4% | – |
| CCC(=O)OCC(=O)[C@@]1(OC(=O)CC)[C@@H](C)C[C@@H]2[C@H]3CCC4=CC(=O)C=C[C@]4(C)[C@@]3(F)[C@@H](O)C[C@@]21C | inactive: -12.8% | – |
| Cc1cc(C)c(NC(=O)C(C)n2c(=O)cc(C)c3c(C)nn(-c4ccccc4)c32)c(C)c1 (stereo not drawn) | inactive: 5.52% | – |
| CC(=O)N1CCc2c(sc3c2c(=O)n(-c2ccccc2)c(=O)n3CC(=O)c2ccc(Cl)cc2)C1 | inactive: -5.93% | – |
| O=C(NCc1cccc(F)c1)C1CCN(c2nc3ccccc3nc2C(F)(F)F)CC1 | inactive: 4.64% | – |
| COCCNC(=O)CCn1c(=O)c2cc(OC)c(OC)cc2n(CC(=O)Nc2ccc(F)c(Cl)c2)c1=O | inactive: -23% | – |
| Cc1cc(C)c(NC(=O)Cn2c(=O)n(-c3cccc(C(F)(F)F)c3)c(=O)c3c(C)c(C)sc32)c(C)c1 | inactive: -8.4% | – |
| COc1ccccc1NC(=O)C(Cc1ccccc1)NS(=O)(=O)c1ccc2c(c1)CCN2C(C)=O (stereo not drawn) | inactive: -15.9% | – |
| O=C(O)c1ccc(Nc2nc3ccccc3c3nncn23)cc1 | inactive: 20.4% | – |
| CC(=O)N1CCOc2cc(S(=O)(=O)NCc3ccccc3Cl)c(C)cc21 | inactive: -0.699% | – |
| NC(=O)c1ccc(N(C(N)=O)c2c(F)cccc2F)nc1-c1ccc(F)cc1F | inactive: -15.9% | – |
| CCOC(=O)c1ccc(NC(=O)CSc2nc3ncc(Br)c(C)c3[nH]2)cc1 | inactive: -6.38% | – |
| COCCCNC(=O)c1ccc(Cn2c(=O)c3ccccc3n(CC(N)=O)c2=O)cc1 | inactive: -7.77% | – |
